# The supplement of paper PMC11417369
# This is one part of the list.
# Tested on: PfAP2-HC AP2 domain (GST-tagged)
# Experiment: gcPBM binding intensity (ln(normalized median fluorescence intensity)); higher = stronger DNA binding
# Method in brief: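 GST-fused DNA-binding domains of P. falciparum, expressed in E. coli, were applied at about 25 μg on average for 1 h to an Agilent 4 × 180k array of primer-extended double-stranded 36-bp intergenic genomic probes and negative controls. Binding intensity is the highest Masliner-normalised natural-log median intensity across replicate spots of either probe orientation, measured with Alexa488 anti-GST antibody and a 488 nm scan.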
row,Sequence,gcPBM binding intensity (ln)
1,TTAATCCACAGACACACACACACAAAATAAAATACA [CACACA_site244],10.5
2,TTAGATATTATTATATGTACATATTATATGTATTAT [XGTACX_site3836],9.74
3,TAGTTAATATGATTATGTACATATATATATTAATTT [XGTACX_site1750],9.52
4,ATTTTTTTTTTTTTTTTTTTTTTTTTTTTTGTTGTT [CACACA_negctrl_site1313],9.16
5,TGTATATGAAAAAATAGTACTCATATAAATATCTTT [XGTACX_site6542],9.53
6,ATAATATATTTATAAACACACAAAAAAAGTTATATA [CACACA_site6831],9.81
7,TTTATTTTATTCACTATCATAAGCAAAACTTAAACA [GTGCAC_negctrl_site287],9.21
8,ATTAATAATATTACATGTACATAATATAATTGAAAA [XGTACX_site5084],9.67
9,AAAATAATAAAAAAAAAAAAAAAAAAAAAAAAGTAT [TGCATGCA_negctrl_site193],9.61
10,ATATATCTTCTTTGCACACTTAAAGGGAAGTGATAA [CACACA_site342],9.51
11,AAAAAAATAATAAAATGTACAAATAAACACATAAAG [XGTACX_site5102],10.1
12,AAATAAAATAAAACAACACACACGAATGTATAAATA [CACACA_site885],10.3
13,AATAAATATAAATACACACCCATATAAATATAAATA [CACACA_site7264],10.1
14,ACAAAGATAAAACATAAAATATATCAAACATAAAAT [XGTACX_negctrl_site198],9.75
15,AAAAAAAATACATGTTGTACGGTACAAATATAAAGT [XGTACX_site2863],10.1
16,CGCGCCCAGAAACACACACACACACCGATATATATA [CACACA_site5250],10.4
17,TAATGTATCTAAAATTGTACAAATATAAATCTAAAT [XGTACX_site1197],9.59
18,TATATACACGCACATACACACAAATAAAAAAACACC [CACACA_site7578],10.2
19,GTATTATTCTATAGAAGTACAGTATATTATTATTTA [XGTACX_site5073],9.59
20,TGTGTTGTAATTAAAACACACATGAAAAAATTAAAA [CACACA_site51],9.78
21,TAAGGATTGGTATAAAGTACAGGAGTAAATTGAAAA [XGTACX_site8525],9.88
22,TACATATTGAATAAGACACACATATATATATATATA [CACACA_site1878],9.79

row,Sequence,gcPBM binding intensity (ln)
1,CATACACATATATATTGTACACATATATGTATGTAT [XGTACX_site4030],9.74
2,ATATTTTTTTTTTATTGTACCCTCATAAAAGAAAAG [XGTACX_site773],9.2
3,TACAACAAGTAATGGTGTACATTATATTATGTAATA [XGTACX_site1194],9.76
4,TATAACAATTTTTATGCATGCGACTATAATATTTTT [TGCATGCA_site508],9.75
5,GGAATAAATAATATTATACACACGTATATTATTATA [CACACA_site2435],9.72
6,AAGCTTTCATAAAGATGTACTTTTTAAAAATAATCT [XGTACX_site5725],9.33
7,TGTGCATAATTTTGTGCACACCACGCTAATAATTTT [CACACA_site2915],9.72
8,ATAAATATATGATAAAGTACATATTTATATAATAAA [XGTACX_site7263],9.6
9,TGATATTATATATATACACACATGTATGTATATATA [CACACA_site1364],9.72
10,ATATTTATTTATAATTGTACTAATAATATATTTTAA [XGTACX_site587],9.51
11,ATGTATCTATATATATGTACACATATTTTAATTAAA [XGTACX_site3673],9.79
12,AAAATAAAAAATTAATGTACTTAGAATTGTCACTAA [XGTACX_site1346],9.64
13,TTTTTCATGTTTATTAGTACATATATTAAGAATGGA [XGTACX_site3493],9.35
14,ACCTATTTATAATAGTGTACGTACAAATTTGTTTAC [XGTACX_site8176],10.1
15,TTTTGTAAATATATATGTACATATATATATATATAT [XGTACX_site5803],9.65
16,AATTTGTTGAAACACACACACACATACATATATATA [CACACA_site2287],11.3
17,TAAAATAATAAACAGAAGAAATCATTCATATAAAAA [XGTACX_negctrl_site502],9.59
18,AAAGAAAATAACAAAATTTTGAAAACATCACATTCG [CACACA_negctrl_site89],9.99
19,AAATTAAAGGCATAAAAGAAAATATTTAATAAAAAA [CACACA_negctrl_site1689],9.59
20,ATATATAATAAACAGGTGCATTGTTTTATTTTGTAT,9.78
21,TTTTTTTTAATTGTGATACGTATATTATTTAATGAT [CACACA_negctrl_site38],9.59
22,ACCAGTTCTTAATACAAATATGTACATATATATATA [GTGCAC_negctrl_site56],9.65

row,Sequence,gcPBM binding intensity (ln)
1,AGCAGGATTAAAAAAAGTACAAGAATTAATATTTAA [XGTACX_site3413],9.57
2,ATTTTTTATTGTTATAAAAAAAAAATTAAACAATTA [CACACA_negctrl_site1077],9.21
3,AATTATTATCCCCTCACACACAAAAATAAAAAGAAT [CACACA_site2885],10.2
4,TATATCTATAATATTACACACATATATTTATATTTT [CACACA_site7595],9.86
5,CAAAAAAAGGAAAAGATACACACCGTAAATTAAAAT [CACACA_site3612],9.94
6,TATTCGTCTTTTTTCTCACACACCCTTTTTATTAAA [CACACA_site2508],9.97
7,TATTTCATCTTATTTTAGGAAAAACTAATATATAAG [CACACA_negctrl_site1823],9.2
8,AAATTTAGGAACATTATATATATATATATATATATA [CACACA_negctrl_site862],9.41
9,GAACATTTGAAATATGCACACATGTATAAACCTACA [CACACA_site2654],9.85
10,TAAAAATAAAGAAAATGTACATAAATAATAATACAT [XGTACX_site2278],9.81
11,CCCACATAAAAAAATAAACACACATATGTATATATA [CACACA_site9040],9.98
12,AAATGGGCTTATTTATGTACTTAAATATATCTACCC [XGTACX_site3823],9.61
13,TAATCAATTCAATATTGTACGATATTTACCTTTAAA [XGTACX_site4678],9.67
14,TACATATATATATACACACATACATATATATACGCA [CACACA_site792],9.85
15,AACCTCGTGTAATATGCATGTTCCCTTCAAAGTTTT [TGCATGCA_site459],9.61
16,ATTATACATTTTAGATGTACATATTTTAAATTTAAT [XGTACX_site5174],9.62
17,ATATTTTGTATAATCACACACACTATTCTTAAATAG [CACACA_site7270],9.98
18,AGAAATTAATCGAAGTGTACATATAAACATACATAT [XGTACX_site5518],9.79
19,AACAAACAAACAAATATACACACTTTTGTATAAAGT [CACACA_site3509],9.88
20,TACATTGTATACATATGTACACATATATATATATAT [XGTACX_site6174],9.87
21,TATTTATGTTATAATTGTACAATAAACAAATTTTTT [XGTACX_site5306],9.42
22,AAAAAAATCTATATTACACACATATATACCTATATA [CACACA_site7464],9.8

row,Sequence,gcPBM binding intensity (ln)
1,TATATATATATAATGTGTACATACTAAATAGAGGAC [XGTACX_site4153],10
2,GAAATGTATAAATCCATACACACATAAATTTTAATA [CACACA_site2364],9.96
3,TAAATATAAAAATGCACACACACAAAAAAAAAAAAA [CACACA_site895],11.4
4,ATAGGTGAATACTAATATAAATTCAAGAGGGAAAAG [CACACA_negctrl_site720],9.73
5,TTTACATTAAATCACGCACACAAAAAAAAAAAAAAA [CACACA_site2418],9.94
6,TATTTATTTGTGGGGTGTACGAAATTTTTTTTTTTT [XGTACX_site5091],9.97
7,ATCTATGGAGCTTATACACACTTTTATATTTTAACA [CACACA_site5994],9.82
8,TTTGAATTTTTATATACACACATTATTATATTATAT [CACACA_site1593],9.91
9,CCTTTCTATTGAAAATGTACATATATATTATTATAT [XGTACX_site5527],9.73
10,AATAATTGTAGACATGCACACACAAATATTATATAT [CACACA_site8181],10.4
11,AATAATTGTTATAGTTGTACAATACATATATTACAA [XGTACX_site30],9.73
12,TGTATATATAAAAATATACACACTGTATTATTGTAA [CACACA_site3757],9.67
13,CATATTTTGAACTTCACACATATATATATATATATA [CACACA_site4228],9.68
14,GGTAGATTATTATTAACGAAAAATGTTTTTAACATA [GTGCAC_negctrl_site216],9.35
15,AAATAAAAAATGGAAATCTTAACAAGAATCATTAAC [CACACA_negctrl_site1626],9.77
16,TATATACAGAATATATGTACATATTCATTTTATATT [XGTACX_site5139],9.66
17,AAAAAATAAATAAATAGTACTTTAAAAGAAAAAAAA [XGTACX_site5051],9.72
18,AAAGAAAACCAAGTGGTGCATTTTCGTTACTTCATC,9.55
19,CAATGTTACTATAATACACACAATATGTATTTGTCT [CACACA_site6668],9.93
20,TTGTTTAACTTGTTAAATATAATGTATCTGTGGATA [GTGCAC_negctrl_site108],9.39
21,AATATATATACTTTTTTTTTTTTTTTTTTTTTTTTT [CACACA_negctrl_site520],9.38
22,ACAAATTGTTAAAGGTGTACAATACATATATAAGAA [XGTACX_site4906],9.89
